In PMC12136788:
This is one part of the list.

T1: UNK ZnF1-6 (called full-length) (human, UniProt Q9C0B0 30-357)
T1 sequence: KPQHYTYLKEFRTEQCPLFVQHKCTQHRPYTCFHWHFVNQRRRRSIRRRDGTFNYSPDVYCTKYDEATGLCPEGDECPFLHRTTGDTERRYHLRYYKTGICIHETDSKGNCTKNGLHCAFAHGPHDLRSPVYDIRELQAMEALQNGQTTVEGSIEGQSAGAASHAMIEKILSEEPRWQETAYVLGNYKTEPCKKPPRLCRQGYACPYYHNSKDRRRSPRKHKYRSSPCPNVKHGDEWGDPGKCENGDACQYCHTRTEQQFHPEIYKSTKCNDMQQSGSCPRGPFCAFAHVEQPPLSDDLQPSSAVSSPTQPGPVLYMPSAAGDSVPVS

B1: chr3:100713726:100713879:+|CDS|ENSG00000114354|unk|FALSE|unique (ssRNA)
RNA: GGGAGUUCUACAGUCCGACGAUCACUUGGGGAGGAUAUUCGGCGAAUUCCUAUUCAUAAUGAAGAUAUUACUUAUGAUGAAUUAGUGCUAAUGAUGCAACGAGUUUUCAGAGGAAAACUUCUGAGUAAUGAUGAAGUAACAAUCAACAGAGGAUUGAGCAUCA
B2: chr2:206311781:206311882:+|3pUTR|ENSG00000204186|unk|total|mutant (ssRNA)
RNA: GGGAGUUCUACAGUCCGACGAUCCCGUGUUCCGAGUCCUUUCAUUUUAAGAUUCAGAAACAGCCUUUGUCCAACAUUUUCUGCCGAAGAACUUCAUCUUAAUUUAUGUCACAAAAUAAUUCCGCACCGUAUACCGAAUUUUGUCAACAGAGGAUUGAGCAUCA
B3: chr13:24435137:24435247:-|CDS|ENSG00000102699|unk|FALSE|unique (ssRNA)
RNA: GGGAGUUCUACAGUCCGACGAUCAAACCAACAGCAACUGAACCACUAUUUAAGAAAGUCAGUCCAUGGGAAACAUCUACUUCUAGCUUUUUUCCUAUUUUGGCUCCGGCCGUUGGUUCCUAUCUUCCCCCGACUGCCCGCGCUCAACAGAGGAUUGAGCAUCA
B4: chr3:149369464:149369565:-|3pUTR|ENSG00000169908|msi1_unk|FALSE|overlapping (ssRNA)
RNA: GGGAGUUCUACAGUCCGACGAUCAAAUAACAUUCCAAUCACUAUUGUAUAUAUGUGCAUGUAUUUUUUAAAUUAAAGAUGUCUAGUUGCUUUUUAUAAGACCAAGAAGGAGAAAAUCCGACAACCUGGAAAGAUUUUUGUUUUCAACAGAGGAUUGAGCAUCA
B5: chr1:235448940:235449205:-|3pUTR|ENSG00000162885|unk|FALSE|unique (ssRNA)
RNA: GGGAGUUCUACAGUCCGACGAUCAAUAGAGAAUUCCAUUAAAACUAGUCUUAUGACAGAUAUUAACUGUGUUCAGAUUUUAUUAGGCUAGCUAGUUUCUUUCUAUUUAAUAUUUAAAUCUUAUCAUGAAAUGCAGUGAUGAGCCAACAGAGGAUUGAGCAUCA
B6: chr6:39540002:39540221:-|CDS|ENSG00000164627|control|control|control (ssRNA)
RNA: GGGAGUUCUACAGUCCGACGAUCCCACUUGGCUGGCAUGGAUAGACGUGAAUUCAGACAGUCCCAGAGCCCACCCUUCCGCCUAGGAAACCCAGAAGAAGGUCAAAGAAUGCGACUAUCCUCAGCUCCCUCACAGGCCCAGGACAACAGAGGAUUGAGCAUCA
B7: chr16:58599380:58599482:-|5pUTR|ENSG00000125107|unk|FALSE|unique (ssRNA)
RNA: GGGAGUUCUACAGUCCGACGAUCCAGAACAGAGUAAGACCCCUGGUAAAGAAGAACUGAAGAUAUUAUACAGAUACCAGAUAUAGCCUAAUUACAAAGAAAGCAUUAACCUGCCUCUGAGGUGACUAAAGGGGAAUAAUGGUGCAACAGAGGAUUGAGCAUCA
B8: chr1:113685846:113685948:+|3pUTR|ENSG00000081026|unk|FALSE|unique (ssRNA)
RNA: GGGAGUUCUACAGUCCGACGAUCUAUAUACACUUGAGGUUCUGAUUAGAGAAAGAUCUGUAAAUUGCUCAUUAUUUUUUAUAUAGAUAUUUAAAAAAAACAGUUUAUGGCCUGCAUUUCUUUUACUGUCACAUUGGUUUAAUGCAACAGAGGAUUGAGCAUCA
B9: chr21:44497892:44499936:-|three_prime_utr|ENSG00000175894|control|control|control (ssRNA)
RNA: GGGAGUUCUACAGUCCGACGAUCGUGGGGCGGGACCCCAGCACCUCCCCCAACUGACCCUGGACGUCCAGGUGGGCCCAGCCUAGGGCAUCCCGGGCCUGGGCAUCAGGCAGGGUGCAGGUGGGGCCAUCUGCGGCCCUGGUUCAACAGAGGAUUGAGCAUCA
B10: ENSG00000198589:be:win_7101|CDS|ENSG00000198589|bound_else_gene|NA|bound_elsewhere_windowed (ssRNA)
RNA: GGGAGUUCUACAGUCCGACGAUCUCUUGGAGUGAUGGAUGAUGGGACAGUAGUGUCUGAUGUCGAACUUCCUCCUUGGGCCAAAACCUCAGAAGAAUUUGUUCACAUAAACAGAUUGGCCCUGGAGAGUGAAUUUGUUUCCUGCAACAGAGGAUUGAGCAUCA
B11: chr9:37441208:37441377:-|CDS|ENSG00000168795|unk|FALSE|unique (ssRNA)
RNA: GGGAGUUCUACAGUCCGACGAUCAGGGUAGGUGAUAUCCAUAUUUUGGAAGUCACAAAUAACCUAGAGCAUAAGUCCACUUUUAGUAUUUCGAAUUUUCUUAACAAGAGCAGAGGAAAUAACUUUACUGCAAAUCAGAACAAUCAACAGAGGAUUGAGCAUCA
B12: chr9:122240152:122240253:-|3pUTR|ENSG00000119446|msi1|FALSE|unique (ssRNA)
RNA: GGGAGUUCUACAGUCCGACGAUCCUUCUUGGAGUAUAGAAUUCACCAUUUUAUCCGUAAGUCUUCAAAGGAUUAUGGUGGACUAGAACUUACAUAGUGCAAAAUAGUCUUCUAUUUUUAAUAGGAACUUAGAAAAAACUUAGACAACAGAGGAUUGAGCAUCA
B13: chr3:45823315:45826332:-|three_prime_utr|ENSG00000163818|control|control|control (ssRNA)
RNA: GGGAGUUCUACAGUCCGACGAUCUCAGGCAUGUAUUUUGAAAAGCAUUUUGUCAUAUCCCCUCUCCUUAUUUUUCUAAUAUUUAGACUUUGAAUAUUUAGAACUAGAGUUCCUAUUUUCAGCUAGUUGAAAACAGAGAAAACCCAACAGAGGAUUGAGCAUCA
B14: chr5:10236899:10237040:-|CDS|ENSG00000150756|control|control|control (ssRNA)
RNA: GGGAGUUCUACAGUCCGACGAUCUAUUAUUACUUGUUCACAAAACCAUCCUCCCAGACACUUUCAUUUCACUGCUGCUGUGCUAGCCCACUGAUGGAGAGAUGCAGUGGAUUUUCAGCAAUGUUUUGUUCGACCUCCCCGGGGCAACAGAGGAUUGAGCAUCA
B15: chrX:51895182:51895295:+|CDS|ENSG00000179222|unk|total|mutant (ssRNA)
RNA: GGGAGUUCUACAGUCCGACGAUCAGUUCACAGCCCCCAACUGCCAAUGAGAUGGCUGACAUUCAGGUUUCAGCAGCUGCCGCCCGGCCUAAGUCAGCCUUUAAAGUCCAGAAUGCCACCACAAAAGGCCCAAAUGGUGUCUAUCAACAGAGGAUUGAGCAUCA
B16: ENSG00000198589:be:win_5151|CDS|ENSG00000198589|bound_else_gene|NA|bound_elsewhere_windowed (ssRNA)
RNA: GGGAGUUCUACAGUCCGACGAUCGCAGUUCAGAUCUUUUGACAGAAGUGUCAUUGUUGCAGCAAAAAAGUCAGCAGUCUCACCUUCCACCUUUAAUACAAGCAUACCUACCAAUGCUGUCAGUGUGGUUUCCUCAGUAGAUUCCAACAGAGGAUUGAGCAUCA
B17: chr7:73831540:73831641:+|CDS|ENSG00000189143|msi1|FALSE|unique (ssRNA)
RNA: GGGAGUUCUACAGUCCGACGAUCCAAGGCCAAGACCAUGAUCGUGGCGGGCGUGGUGUUCCUGUUGGCCGGCCUUAUGGUGAUAGUGCCGGUGUCCUGGACGGCCCACAACAUCAUCCAAGACUUCUACAAUCCGCUGGUGGCCAACAGAGGAUUGAGCAUCA
B18: chrX:101412715:101412817:+|CDS|ENSG00000126945|unk|FALSE|unique (ssRNA)
RNA: GGGAGUUCUACAGUCCGACGAUCGGGUAUGGAGGCUAUGAUGACUAUGGUGGCUAUAAUGAUGGAUAUGGCUUUGGGUCUGAUAGAUUUGGAAGAGACCUCAAUUACUGUUUUUCAGGAAUGUCUGAUCAUAGAUACGGAGAUCAACAGAGGAUUGAGCAUCA
B19: chr19:18306235:18307555:-|three_prime_utr|ENSG00000130520|control|control|control (ssRNA)
RNA: GGGAGUUCUACAGUCCGACGAUCCAGAAAGGAAGAGGCAGGCGCCAGGGGGAACCCCCUUCGUGUUUUGUGACCCUCCCUUUUAGGUGAAGCCCCUUUUUCUUGCUAAAACCGGCAAUUCUCCGGUUAGAAAUGUUACUUGGUCAACAGAGGAUUGAGCAUCA
B20: chr5:157463210:157463311:+|CDS|ENSG00000172548|unk|total|mutant (ssRNA)
RNA: GGGAGUUCUACAGUCCGACGAUCCAGGAAAGAAUCAGGCAGAACUAUGGCUUCUACAUCGGCCUGGGCCUGGCAUUCCUGUCCCGCUUCCUCAUCGGCAGCAGCGUCAUCCUCAAGAAGAAAGGCCUCUUGCGACUCGUGGCCCAACAGAGGAUUGAGCAUCA
B21: chr12:81257974:81259660:-|three_prime_utr|ENSG00000139220|control|control|control (ssRNA)
RNA: GGGAGUUCUACAGUCCGACGAUCAUGACUUAUUAAAAGCUGAAAAAUGUGAUUUUUGGGGGGAGUCAGAUAUUACAUUUGAUUAGUUUACUACAAAUUGUAAUAAAAUGCUUAAGUCAUUUGAAUAAUAAACAUCAUCUACAUCAACAGAGGAUUGAGCAUCA
B22: chr4:121668310:121668420:-|3pUTR|ENSG00000164111|msi1_unk|FALSE|overlapping (ssRNA)
RNA: GGGAGUUCUACAGUCCGACGAUCCCUUCAGCACCUUUAGCUGCAUUUGUAUGCCAGUGCUUAACACAUUGCCUUAUUCAUACUAGCAUGCUCAUGACCAACACAUACACGUCAUAGAAGAAAAUAGUGGUGCUUCUUUCUGAUCAACAGAGGAUUGAGCAUCA

molecular target: T1, UNK ZnF1-6 (called full-length); experiment: nsRBNS (natural sequence RNA bind-n-seq); RBNS binding buffer (assumed for nsRBNS): 25 mM Tris pH 7.5, 150 mM KCl, 3 mM MgCl2, 0.01% Triton X-100, 500 ug/ml BSA, 20 U/ml SUPERase-In, 4 C; UNK is unkempt and MSI1 is Musashi-1; names of the RNAs are library labels; protein concentration not given here; high values mean tight binding

Q: B1 was tested. Which binding signal did it give?
A: 1.32 enrichment R

Q: B2 was tested. Which binding signal did it give?
A: 0.453 enrichment R

Q: For B3, which binding signal is on record?
A: 1.32 enrichment R

Q: How did the binding signal turn out when B4 was run?
A: 2.91 enrichment R

Q: For B5, which binding signal is on record?
A: 35.6 enrichment R

Q: For B6, which binding signal is on record?
A: 0.794 enrichment R

Q: For B7, which binding signal is on record?
A: 0.956 enrichment R

Q: B8 was tested. Which binding signal did it give?
A: 2.28 enrichment R

Q: B9 was tested. Which binding signal did it give?
A: 1.1 enrichment R

Q: For B10, which binding signal is on record?
A: 0.56 enrichment R

Q: With B11 as the binder, how does the binding signal read?
A: 1.91 enrichment R

Q: How did the binding signal turn out when B12 was run?
A: 41.4 enrichment R

Q: How did the binding signal turn out when B13 was run?
A: 2.09 enrichment R

Q: Which binding signal does the source give for B14 here?
A: 0.684 enrichment R

Q: With B15 as the binder, how does the binding signal read?
A: 0.673 enrichment R

Q: B16 was tested. Which binding signal did it give?
A: 0.468 enrichment R

Q: Which binding signal does the source give for B17 here?
A: 0.598 enrichment R

Q: B18 was tested. Which binding signal did it give?
A: 0.897 enrichment R

Q: How did the binding signal turn out when B19 was run?
A: 1.21 enrichment R

Q: With B20 as the binder, how does the binding signal read?
A: 0.855 enrichment R

Q: With B21 as the binder, how does the binding signal read?
A: 0.956 enrichment R

Q: How did the binding signal turn out when B22 was run?
A: 0.51 enrichment R
